PubChem BioAssay AID1030 (National Center for Advancing Translational Sciences (NCATS), 2008)
Hit rate of the full screen: of about 220,000 compounds, about 16,000 (7.3%) were called active. This list was built around the results that the source calls inconclusive (neither active nor inactive); the mix of calls is not that of the screen. Calls follow the shape of the dose curve; as a rule, active = well fitted inhibition curve with a large enough effect (not every such curve was filed as active); inconclusive = small, poorly fitted or top-dose-only effect, or another doubt; inactive = no such curve, though single readings can be large or run the other way. A potency beside an inconclusive call is a rough fit, not a confirmed value.

The molecules below were run against Aldehyde dehydrogenase 1A1 (Homo sapiens) (UniProt P00352) (assay: qHTS Assay for Inhibitors of Aldehyde Dehydrogenase 1 (ALDH1A1)). Settings: Purified ALDH1A1, NADH fluorescence, propionaldehyde substrate; series mostly up to 75.3 µM.
UniProt P00352, sequence (P00352 whole entry, looked up): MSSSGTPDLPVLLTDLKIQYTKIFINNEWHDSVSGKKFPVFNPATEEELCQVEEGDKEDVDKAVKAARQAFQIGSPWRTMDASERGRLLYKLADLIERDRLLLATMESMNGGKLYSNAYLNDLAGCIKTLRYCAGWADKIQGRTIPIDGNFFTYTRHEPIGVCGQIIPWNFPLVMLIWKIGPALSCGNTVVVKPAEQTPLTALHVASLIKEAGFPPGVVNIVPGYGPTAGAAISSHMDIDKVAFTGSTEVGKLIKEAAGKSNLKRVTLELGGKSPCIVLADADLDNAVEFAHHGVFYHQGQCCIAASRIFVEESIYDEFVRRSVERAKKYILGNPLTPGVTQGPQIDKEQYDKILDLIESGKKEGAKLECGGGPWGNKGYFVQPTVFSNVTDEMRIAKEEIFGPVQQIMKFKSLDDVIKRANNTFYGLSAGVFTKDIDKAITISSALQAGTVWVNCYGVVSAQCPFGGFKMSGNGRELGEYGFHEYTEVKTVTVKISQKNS

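For activity, negative = inhibition in this document: plate controls were no enzyme wells and a reference inhibitor.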
Potency is read from the fitted curve at half-maximal effect; tags tell the direction and shape of the fitted curve.

Potency, inactive:
CS(=O)(=O)N1CCN(C(=O)c2ccc(Cl)s2)CC1
Cc1cc(CNCc2c(C(=O)N(C)Cc3ccccc3)nc3ccccn23)nn1C
O=C(NCCn1cc(SCC(=O)N2CCOCC2)c2ccccc21)c1c(F)cccc1F
COCCNC(C)C(=O)C12CC3CC(CC(C3)C1)C2 (configuration not stated)
COc1ccc(N2CCN(C(CNS(=O)(=O)c3cccs3)c3cccnc3)CC2)cc1 (configuration not stated)
CCOC(=O)c1nnn(-c2nc(OC)nc(N3CCCC3)n2)c1-c1ccccc1
CCC(C)(C(=O)NC1CCCC1)N(C(=O)c1ccccn1)c1ccc(C)cc1 (configuration not stated)
CCOc1ccc(NC(=O)CNC(=O)c2cccs2)cc1
O=C(Nc1ccc(S(=O)(=O)N2CCc3ccccc3C2)cc1)C1CCCO1 (configuration not stated)
Cc1cc(C)n(S(=O)(=O)c2ccc(C)c(C)c2C)n1
COc1ccc(N2CCN(c3ccc([N+](=O)[O-])nc3)CC2)cc1
COc1ccccc1NC(=O)Cn1nnc(C(=O)NCCc2ccccc2)c1N
c1ccc(-c2ccccc2OCCOCCN2CCCCC2)cc1
Cc1cccc2c(=O)c(C(=O)NCCCN3CCOCC3)c[nH]c12
CCSc1nc2ccccc2[nH]1
CCOC(=O)COc1c(/C=N\OC)cc(Cl)cc1OC
CCn1c(SCc2ccc(Cl)cc2Cl)nc2nc3c(cc2c1=O)CCCC3

Potency, inconclusive:
CCCn1nc(NC(=O)c2cccs2)c2cc3ccccc3nc21 31.6 µM [inhibitor, partial curve]
CNc1c(N)n(Cc2ccccc2)c(=O)[nH]c1=O 31.6 µM [inhibitor, single point]
COc1cccc(/C=N/NC(=O)CNC(=O)c2ccc(S(=O)(=O)N3CCOCC3)cc2)c1OC 35.5 µM [inhibitor, single point]
NC(=O)c1ccccc1NC(=O)/C=C/c1ccccc1 39.8 µM [inhibitor, single point]
O=C(N/N=C1\C/C(=N\NC(=O)c2ccncc2)c2ccccc21)c1ccncc1 2.82 µM [inhibitor, full curve]
O=C(CSc1nc2c([nH]c3ccccc32)c(=O)n1-c1ccc(F)cc1)NCc1ccco1 35.5 µM [inhibitor, partial curve]
COC(=O)CSc1nc(C)c2ccc(OC)cc2n1 31.6 µM [inhibitor, single point]
CCCC1CCC(C2=N/C(=C\c3ccc(OC)c(OC)c3)C(=O)O2)CC1 (configuration not stated) 15.8 µM [inhibitor, partial curve, poor fit]
CC(C)CC(=O)N1CCC(O)(CS(=O)(=O)Cc2ccccc2Cl)CC1 17.8 µM [inhibitor, single point]
O=C(c1ccc2c3c(cccc13)CC2)C1CCCN(Cc2ccccn2)C1 (configuration not stated) 25.1 µM [inhibitor, partial curve]
N#Cc1nc(-c2ccc(F)cc2)oc1N1CCCC1 31.6 µM [inhibitor, partial curve]
CS(=O)(=O)Nc1ccc(C2=NN(S(C)(=O)=O)C(c3cccs3)C2)cc1 (configuration not stated) 35.5 µM [inhibitor, partial curve]
O=C(NCc1ccco1)C(Cc1ccccc1)NS(=O)(=O)c1cccc2nsnc12 (configuration not stated) 39.8 µM [inhibitor, single point]
C/C(CC(=O)Nc1cccc(Cl)c1C)=N\NC(=O)C(=O)NCC(C)C 3.55 µM [inhibitor, full curve]
Cc1cc(/C=N/NC(=O)COc2cccc3cccnc23)c(C)n1-c1ccc(O)cc1 25.1 µM [inhibitor, single point]
O=c1c(-c2cc(F)cc(F)c2)nc2cnc(N3CCNCC3)nc2n1C1CC1 17.8 µM [inhibitor, partial curve]
CCOC(=O)c1c(NC(=O)CC(C)C)sc(C(C)=O)c1C 35.5 µM [inhibitor, single point]
CCN(CC)S(=O)(=O)c1ccc(Cl)c(C(=O)NCc2ccco2)c1 39.8 µM [inhibitor, single point]
C/C(CC(=O)Nc1ccc(Cl)cc1Cl)=N\NC(=O)C(=O)N1CCCC1 5.01 µM [inhibitor, partial curve, poor fit]
O=C(NC1CCCCCCC1)c1ccco1 20 µM [inhibitor, partial curve]
COc1cc2cc(CN(CCc3ccccc3C)C(=S)NCCCN3CCOCC3)c(=O)[nH]c2cc1OC 28.2 µM [inhibitor, partial curve]
CCOC(=O)Nc1c(C(=O)OC)[nH]c2cccc(OC)c12 39.8 µM [inhibitor, single point]
COc1ccc(-c2cc(C(=O)N3CCCc4ccccc43)no2)cc1OC 28.2 µM [inhibitor, single point]
COCCSc1ccccc1C(=O)Nc1nncs1 39.8 µM [inhibitor, single point]
CCCCCCc1cc2cc(S(=O)(=O)c3ccc(F)c(Cl)c3)c(=O)oc2cc1O 8.91 µM [inhibitor, partial curve]
Cc1cccc(S(=O)(=O)c2c(N)n(/N=C/c3ccco3)c3nc4ccccc4nc23)c1 31.6 µM [inhibitor, partial curve]
CSCCC1Nc2ccc(S(=O)(=O)N3CCOCC3)cc2NC1=O (configuration not stated) 39.8 µM [inhibitor, single point]
COc1cccc(C(=O)CSc2nnc(COc3cccc4cccnc34)o2)c1 39.8 µM [inhibitor, single point]
Cc1nc2cnc(N3CCN(C)CC3)nc2n(-c2ccccc2)c1=O 31.6 µM [inhibitor, partial curve]
O=C(CC(=O)Nc1ccccc1C(=O)O)NNC(=O)Cc1ccccc1 39.8 µM [inhibitor, single point]
O=c1[nH]nc(Sc2ncnc3sccc23)n1CCc1ccccc1 39.8 µM [inhibitor, single point]
CO/N=C/C=C1/N(C)c2ccccc2C1(C)C 39.8 µM [inhibitor, single point]
Fc1ccc(-c2ccnc(=S)[nH]2)cc1 3.98 µM [inhibitor, full curve]
C=CCSC(=C(C#N)C#N)c1cc2c([nH]1)CCCC2 44.7 µM [inhibitor, single point]
Cc1ccc(-n2c(=O)cc(N3CC(C)OC(C)C3)[nH]c2=O)cc1 (configuration not stated) 28.2 µM [inhibitor, single point]
Cc1nn(C)cc1C1C2=C(CC(C)(C)CC2=O)N(c2ccccc2)C2=C1C(=O)CC(C)(C)C2 35.5 µM [inhibitor, single point]
OC1C2CN3CCN(C2)CC1(Cc1ccccc1)C3 (configuration not stated) 39.8 µM [inhibitor, single point]
CS(=O)(=O)N1CCC2(CC1)CN(c1cccc(-c3ccccc3)c1)C2 39.8 µM [inhibitor, single point]
CCOC(=O)C(=Cc1cn(C)c2ccc(S(=O)(=O)N(C)C)cc12)C(=O)OCC 17.8 µM [inhibitor, partial curve]
CCCC(=O)Nc1c(-c2ccccc2OC)c(=O)c2ccccc2n1C 35.5 µM [inhibitor, single point]
CSc1nc(C2CC2)cc(-c2cccs2)c1C#N 35.5 µM [inhibitor, single point]
CCOC(=O)CSc1nc2ccc(N3CCOCC3)cc2c(=O)n1Cc1ccccc1 25.1 µM [inhibitor, partial curve]
Nc1cccc2c1C(=O)N(C(=O)/C=C/c1ccc(F)cc1)C2=O 39.8 µM [inhibitor, single point]
Cn1c(NN)nc2ccccc2c1=O 8.91 µM [inhibitor, single point]
CCOc1cc(/C=N/O)cc(Br)c1OCC 28.2 µM [inhibitor, single point]
CN1/C(=C\C(=S)Nc2ccccc2)C(C)(C)c2ccccc21 39.8 µM [inhibitor, single point]

Potency, active:
COC(=O)/C(C#N)=C1/SC=C(C)N1c1ccccc1 11.2 µM
CC(=O)c1cccc(NC(=O)CCS(=O)(=O)c2cccc3nsnc23)c1 22.4 µM
c1cncc(-c2nccc(NCc3cccs3)n2)c1 11.2 µM
Cc1c(NC(=O)c2cc3c(s2)-c2ccccc2OC3)cccc1[N+](=O)[O-] 14.1 µM
CCCc1nc(SCC(=O)c2ccc(OC)cc2)c2ccccc2n1 10 µM
COc1ccccc1NC(=O)Cn1c(=O)n2nc(C)nc2c2ccccc21 20 µM
COc1cccc(NC(=O)c2ccc(Cn3cc([N+](=O)[O-])cn3)o2)c1 14.1 µM
Cc1onc(-c2ccccc2)c1C(=O)NC(=S)Nc1sc2c(c1C#N)CCC(C)C2 (configuration not stated) 2.24 µM

activity, negative = inhibition, inactive:
CC(C)CO/N=C1/C[C@@H](O)[C@@H](O)[C@@H]2[C@@H]3C(=O)N(C(C)(C)C)C(=O)[C@H]3CC[C@H]12 7.5% [at 13.5 µM]
